According to patent publication EP4591887A1, “GPC3 ANTIBODY-DRUG CONJUGATE AND USE THEREOF” (priority 2022, dated 2024):

How the values were obtained:
[1] = tested on: PDX model LIV#219 of nude mice with human liver cancer; assay: Antitumor activity in LIV#219 liver cancer PDX model; assay type: in vivo, BALB/c nude mice; conditions: 3 mg/kg; for relative tumor proliferation rate (T/C) (%) / tumor growth inhibition rate (TGI %): Day 26; for inhibitory activity on tumor growth: result in words; for tolerance of tumor-bearing mice: result in words (animal body weight, Figure 17)
Description: The antitumor activity of GPC3-ADCs was tested in an LIV#219 liver cancer PDX model. The model has a higher expression level of GPC3 RNA, and a positive expression of GPC3 as confirmed by FACS analysis.
The process of the establishment of a PDX model of nude mice with human liver cancer was as follows: A tumor tissue with a volume size of about 15-30 mm^3 was transplanted subcutaneously under the back of the BALB/c nude mice. When the tumor volume reached 250-360 mm^3, the mice were divided into a total of 4 groups by a randomized block method, with 6 mice per group, ensuring uniformity in tumor volume and balance in body weight between these groups. The groups included a vehicle group, a 3 mg/kg GC33-L1-D1 administration group, a 3 mg/kg Hu 52H5D3B8-7-L1-D1 administration group, and a 3 mg/kg Hu 52H5D3B8-8-L1-D1 administration group.
Data analysis: During the experiment, the tumor volume was measured twice a week. The calculation formula for the tumor volume (TV) is: TV = l × w^2 / 2, in which l and w represent the measured length and width of the tumor, respectively. According to the measurement results, the relative tumor volume (RTV) was calculated by RTV = Vf / V0, in which V0 is the tumor volume measured at the time of grouping for administration (i.e., Day 0), and Vf is the tumor volume measured on the last day. Relative tumor proliferation rate (T/C) (%) = (RTV in drug administration group / RTV in vehicle group) × 100%. Tumor growth inhibition rate (TGI %) = (average tumor volume in vehicle group - average tumor volume in drug administration group) / average tumor volume in vehicle group × 100%. When T/C (%) ≤ 40% and P < 0.05, the test sample was believed to have a significant inhibitory effect on tumor growth.

HepG2 cells = assay: FACS binding of GPC3 antibody and ADC to HepG2 cells; design: species or system Human; conditions: 4°C 60 minutes
Text: It was confirmed by an FACS experiment that the binding of ADC was basically unaffected by Cys conjugation, and at the same time Hu 52H5D3B8-8 ADC and GC33 ADC were compared for cell binding.
After digestion by trypsin-EDTA, the cultured HepG2 cells were collected. After centrifugation, the cells were resuspended in FACS buffer (PBS + 2% FBS), the cell density was adjusted, and the cells were dispensed to a 96-well U-bottom cell culture plate, such that each well contained 200,000-500,000 cells. The antibody or ADC diluted with FACS buffer in a 4-fold gradient manner was added and uniformly mixed, such that the final starting concentration of each sample was finally 10 µg/mL. The 96-well plate was incubated at 4°C for 60 minutes. The cells in the wells were thoroughly washed with FACS buffer to remove unbound antibodies and ADCs. Goat anti-Human IgG (H+L) Secondary Antibody, Alexa Fluor 488 (Invitrogen), diluted with FACS buffer at 1 : 1,000 was added and incubated at 4°C in the dark for 30 minutes. The cells in the wells were washed with FACS buffer to remove unbound secondary antibodies. The cell sample was analyzed for fluorescence signal by CytoFLEX flow cytometer (Beckman Coulter). […] Table 3: Binding (EC50) of each GPC3 antibody and ADC to HepG2 cells

| Molecule | relative tumor proliferation rate (T/C) (%) [1] [%] | tumor growth inhibition rate (TGI %) [1] [%] | inhibitory activity on tumor growth [1] | tolerance of tumor-bearing mice [1] | EC50 (HepG2 cells) [µg/mL] |
| --- | --- | --- | --- | --- | --- |
| Hu 52H5D3B8-7-L1-D1 (conjugate) heavy: EVQLVQSGAEVKKPGASVKVSCKASGYTFTDYEMHWVRQAPGQGLEWMGAIHPGSGGTAYNQKFKGRVTMTADKSISTAYMELSRLRSDDTAVYYCTRFYSYAYWGQGTLVTVSS[human IgG1 constant region not printed] light: DVVMTQTPLSLSVTPGQPASISCRSSQSLVHSNGNTYLQWYLQKPGQSPQLLIYKVSNRFSGVPDRFSGSGSGTDFTLKISRVEAEDVGVYYCSQSIHVPYTFGGGTKVEIKRTVAAPSVFIFPPSDEQLKSGTASVVCLLNNFYPREAKVQWKVDNALQSGNSQESVTEQDSKDSTYSLSSTLTLSKADYEKHKVYACEVTHQGLSSPVTKSFNRGEC | 33.58 | 66.42 | significant inhibitory activities on tumor growth | well tolerated |  |
| Hu 52H5D3B8-8-L1-D1 (conjugate) heavy: EVQLVQSGAEVKKPGASVKVSCKASGYTFTDYEMHWVRQAPGQGLEWMGAIHPGSGGTAYNQKFKGRVTMTADKSISTAYMELSRLRSDDTAVYYCTRFYSYAYWGQGTLVTVSS[human IgG1 constant region not printed] light: DVVMTQTPLSLSVTPGQPASISCRSSQSLVHSNGNTYLQWYLQKPGQSPQLLIYKVSNRFSGVPDRFSGSGSGTDFTLKISRVEAEDVGVYFCSQSIHVPYTFGGGTKVEIKRTVAAPSVFIFPPSDEQLKSGTASVVCLLNNFYPREAKVQWKVDNALQSGNSQESVTEQDSKDSTYSLSSTLTLSKADYEKHKVYACEVTHQGLSSPVTKSFNRGEC | 39.93 | 60.07 | significant inhibitory activities on tumor growth | well tolerated |  |
| Hu 52H5D3B8-8-L4-D4 (conjugate) heavy: EVQLVQSGAEVKKPGASVKVSCKASGYTFTDYEMHWVRQAPGQGLEWMGAIHPGSGGTAYNQKFKGRVTMTADKSISTAYMELSRLRSDDTAVYYCTRFYSYAYWGQGTLVTVSS[human IgG1 constant region not printed] light: DVVMTQTPLSLSVTPGQPASISCRSSQSLVHSNGNTYLQWYLQKPGQSPQLLIYKVSNRFSGVPDRFSGSGSGTDFTLKISRVEAEDVGVYFCSQSIHVPYTFGGGTKVEIKRTVAAPSVFIFPPSDEQLKSGTASVVCLLNNFYPREAKVQWKVDNALQSGNSQESVTEQDSKDSTYSLSSTLTLSKADYEKHKVYACEVTHQGLSSPVTKSFNRGEC |  |  |  |  | 0.06929 |
| Hu 52H5D3B8-8-ZLA (conjugate) heavy: EVQLVQSGAEVKKPGASVKVSCKASGYTFTDYEMHWVRQAPGQGLEWMGAIHPGSGGTAYNQKFKGRVTMTADKSISTAYMELSRLRSDDTAVYYCTRFYSYAYWGQGTLVTVSS[human IgG1 constant region not printed] light: DVVMTQTPLSLSVTPGQPASISCRSSQSLVHSNGNTYLQWYLQKPGQSPQLLIYKVSNRFSGVPDRFSGSGSGTDFTLKISRVEAEDVGVYFCSQSIHVPYTFGGGTKVEIKRTVAAPSVFIFPPSDEQLKSGTASVVCLLNNFYPREAKVQWKVDNALQSGNSQESVTEQDSKDSTYSLSSTLTLSKADYEKHKVYACEVTHQGLSSPVTKSFNRGEC |  |  |  |  | 0.0569 |
